“And” between values parts separate entries of the source, which are not always exact repeats. Equal values may be shown once. About 1,200 (0.4%) of roughly 300,000 compounds were called active. Inconclusive results, whose numbers are uncertain, are shown with a selection of clear calls. Calls follow the shape of the dose curve; as a rule, active = well fitted inhibition curve with a large enough effect; inconclusive = small, poorly fitted or top-dose-only effect, or another doubt; inactive = no such curve, though single readings can be large or run the other way. Potencies beside an inconclusive call are fits to weak or partial responses and may not hold up.
target: Lysosomal alpha-glucosidase (Homo sapiens) (UniProt P10253); assay: qHTS Assay for Inhibitors and Activators of Human alpha-Glucosidase Cleavage of Glycogen; details: recombinant GAA, glycogen substrate, Amplex Red glucose oxidase fluorescence; series mostly up to 76.4 µM
Method in brief: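 qHTS, 1536-well; enzyme 4 nM final; cpd up to 77 uM; substrate bovine liver glycogen 30 ug; 50 mM citrate/phosphate pH 5.0, 0.01% Tween-20; 37 C, 40 min; Amplex Red detection 45 min RT; Hill fit → AC50.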
Potency is read from the fitted curve at half-maximal effect.

Row | Compound | Potency
1 | Cc1cccn2c(N)c(-c3ccccc3)nc12 | inconclusive: 39.8 µM [inhibitor, partial curve]
2 | COCc1cc(C)nc2sc(C(=O)NN)c(-n3cccc3)c12 | inconclusive: 12.6 µM [inhibitor, partial curve]
3 | CCCc1sc(N/N=C/c2ccccn2)nc1-c1ccc(Br)cc1 | inconclusive: 22.4 µM [inhibitor, single point]
4 | CCn1c(C)nc2cc(C(=O)NNC(=S)Nc3ccccc3OC)ccc21 | inconclusive: 50.1 µM [inhibitor, single point]
5 | COc1ccccc1Nc1nc(C)cs1 | inconclusive: 9.92 µM [inhibitor, partial curve] and inconclusive: 28 µM [inhibitor, partial curve]
6 | CC(C)(C)NNC(=S)Nc1ccc(S(=O)(=O)N2CCOCC2)cc1 | inconclusive: 8.91 µM [inhibitor, partial curve]
7 | CCOC(=O)C(=O)NNc1ccc(F)cc1 | inconclusive: 3.16 µM [inhibitor, full curve]
8 | CC1CCC/C(=N/Nc2ccc([N+](=O)[O-])cc2[N+](=O)[O-])C1 (centres undefined) | active: 15.7 µM
9 | COc1cc(/C=N/NC(=O)c2cc3ccccc3[nH]2)ccc1O | inconclusive: 31.6 µM [inhibitor, partial curve]
10 | Cc1ccc(-n2nc(-c3ccc(F)cc3)c3cnc4cc5c(cc4c32)OCO5)cc1C | inactive
11 | O=C(NNS(=O)(=O)c1ccccc1)c1cccc(F)c1 | inconclusive: 25.1 µM [inhibitor, partial curve]
12 | COc1ccc(OC)c2sc(NNC(=O)C3COc4ccccc4O3)nc12 (centres undefined) | inconclusive: 39.5 µM [inhibitor, single point]
13 | CC1=NNC(=O)C1CCC(=O)N/N=C\c1ccccc1[N+](=O)[O-] (centres undefined) | inconclusive: 9.92 µM [inhibitor, partial curve]
14 | Nc1c(NCCc2ccccc2)c2ccccc2oc1=O | inconclusive: 3.52 µM [inhibitor, full curve]
15 | Cc1ccc(CNC(=O)c2ccc(CNS(=O)(=O)c3ccc4c(c3)C(C)(C)C(=O)N4C)cc2)o1 | inactive
16 | O=C(NN=C1CCCC1)c1[nH]c2ccc(Br)cc2c1-c1ccccc1 | inconclusive: 35.5 µM [inhibitor, partial curve]
17 | COc1ccc(NC(=O)c2nc(SCc3ccccc3F)ncc2Cl)cc1 | inactive
18 | Cc1sc(N)c(C(=O)c2ccccc2Cl)c1C | inconclusive: 14 µM [inhibitor, single point]
19 | Cc1ccn2c(Nc3ccc4c(c3)OCO4)c(-c3ccc(O)cc3)nc2c1 | active: 6.31 µM and active: 11.2 µM

— PubChem BioAssay AID2100 (National Center for Advancing Translational Sciences (NCATS), 2009)
